According to the supplement of paper PMC7826260:
This is one part of the list. The data describe in vitro nicking of single-stranded DNA by Rep domains at 3 µM enzyme and 37 °C for 1 h; the strands have 90 letters, of which the middle is given. The score is log2 (uncut reads / reads without enzyme); more negative means more cut, near 0 not cut, and no call is made. Shares of all reads are compared; values above 0 arise when much of the pool is cut.

Columns and labels:
Experiment in all cases: uncleaved DNA left, log2 of reads against the no-enzyme library (log2 ratio); higher = less cleavage (more negative = more Rep cleavage of the k-mer); sequences stand for … in CTCGTCCG…ACCGGAGA
[1] = test system: T1, Rep nickase domain of Muscovy duck circovirus
T1 sequence (protein, residues 1-111, tag omitted): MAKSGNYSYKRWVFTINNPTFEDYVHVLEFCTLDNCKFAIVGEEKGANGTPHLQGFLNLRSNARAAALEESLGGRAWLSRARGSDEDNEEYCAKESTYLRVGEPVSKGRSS
Experimental: (§1)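 A pool of 90-nt single-stranded DNAs with seven random bases just before the constant AC of the nick site (name = the seven bases) was cut by 3 µM recombinant His6-SUMO-tagged Rep nickase domain (300 nM DNA, 50 mM HEPES pH 8.0, 50 mM NaCl, 1 mM MnCl2, 1 h, 37 °C, three replicates). Uncut DNA was amplified and sequenced.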

[2] = test system: T2, Rep nickase domain of banana bunchy top virus
T2 sequence (protein, residues 1-94, tag omitted): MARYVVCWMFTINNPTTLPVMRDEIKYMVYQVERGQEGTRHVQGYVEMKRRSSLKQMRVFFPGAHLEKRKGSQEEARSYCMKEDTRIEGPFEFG
Experimental: as §1

[3] = test system: T3, Rep nickase domain of cabbage leaf curl virus
T3 sequence (protein, residues 1-116, tag omitted): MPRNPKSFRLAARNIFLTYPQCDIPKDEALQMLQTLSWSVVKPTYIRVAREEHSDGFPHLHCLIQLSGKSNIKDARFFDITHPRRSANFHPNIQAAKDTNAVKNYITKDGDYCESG
Experimental: as §1

[4] = test system: T4, Rep nickase domain of chickpea chlorotic dwarf virus
T4 sequence (protein, residues 1-124, tag omitted): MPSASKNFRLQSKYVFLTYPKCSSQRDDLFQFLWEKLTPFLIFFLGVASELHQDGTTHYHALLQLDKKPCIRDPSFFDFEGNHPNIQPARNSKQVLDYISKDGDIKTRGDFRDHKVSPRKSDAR
Experimental: as §1

[5] = test system: T5, Rep nickase domain of faba bean necrotic yellows virus
T5 sequence (protein, residues 1-98, tag omitted): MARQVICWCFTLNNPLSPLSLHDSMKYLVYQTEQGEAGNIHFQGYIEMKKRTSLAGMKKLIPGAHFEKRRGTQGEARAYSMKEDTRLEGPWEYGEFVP
Experimental: as §1

[6] = test system: T6, Rep nickase domain of maize striate mosaic virus
T6 sequence (protein, residues 1-117, tag omitted): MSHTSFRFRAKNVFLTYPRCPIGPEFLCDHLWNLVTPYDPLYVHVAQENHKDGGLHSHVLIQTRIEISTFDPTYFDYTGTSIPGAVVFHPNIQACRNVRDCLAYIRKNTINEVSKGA
Experimental: as §1

[7] = test system: T7, Rep nickase domain of porcine circovirus 2
T7 sequence (protein, residues 2-116, tag omitted): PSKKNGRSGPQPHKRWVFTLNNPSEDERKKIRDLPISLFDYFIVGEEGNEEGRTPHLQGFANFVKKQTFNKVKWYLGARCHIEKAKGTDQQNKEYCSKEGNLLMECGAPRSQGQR
Experimental: as §1

[8] = test system: T8, Rep nickase domain of tomato yellow leaf curl virus
T8 sequence (protein, residues 1-136, tag omitted): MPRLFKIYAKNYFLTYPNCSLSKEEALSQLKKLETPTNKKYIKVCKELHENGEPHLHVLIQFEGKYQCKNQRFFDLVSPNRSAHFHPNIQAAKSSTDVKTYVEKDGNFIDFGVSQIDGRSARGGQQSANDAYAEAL
Experimental: as §1

[9] = test system: T9, Rep nickase domain of wheat dwarf virus
T9 sequence (protein, residues 1-137, tag omitted): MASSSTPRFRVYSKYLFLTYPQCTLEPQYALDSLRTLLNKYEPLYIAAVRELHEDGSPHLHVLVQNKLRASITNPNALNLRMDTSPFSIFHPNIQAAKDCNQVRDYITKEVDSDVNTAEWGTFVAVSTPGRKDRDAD
Experimental: as §1

Sequence | uncleaved DNA left (log2) [1] | uncleaved DNA left (log2) [2] | uncleaved DNA left (log2) [3] | uncleaved DNA left (log2) [4] | uncleaved DNA left (log2) [5] | uncleaved DNA left (log2) [6] | uncleaved DNA left (log2) [7] | uncleaved DNA left (log2) [8] | uncleaved DNA left (log2) [9]
TGACGCC | 0.00859 | 0.0474 | 0.124 | 0.367 | 0.0164 | 0.673 | -0.101 | 0.00942 | 0.0228
CAGACAG | -0.0435 | 0.0987 | -0.0737 | 0.158 | 0.116 | -0.399 | 0.184 | 0.0168 | 0.0243
GAGCGAA | 0.0288 | 0.0494 | -0.0429 | 0.46 | 0.0325 | 0.832 | -0.0511 | -0.0171 | 0.0533
ATCGGCA | 0.051 | 0.114 | -0.156 | -0.422 | 0.0256 | -0.84 | -0.0969 | 0.0497 | 0.0658
CGGTAGG | -0.0684 | -0.02 | -0.0612 | 0.458 | -0.0834 | -0.0641 | 0.0839 | -0.158 | -0.112
AGGGGAA | 0.165 | 0.0148 | 0.407 | 1.38 | -0.0393 | 1.71 | 0.112 | -0.0447 | 0.126
TTACACA | 0.0135 | 0.0272 | 0.0602 | -1.66 | -0.019 | -0.142 | -0.118 | -0.142 | 0.00171
ATCGGCC | -0.00716 | 0.033 | -0.0565 | 0.0871 | 0.0179 | -0.481 | 0.147 | 0.0912 | 0.0757
GAAAACA | -0.00675 | 0.138 | 0.324 | -1.49 | 0.0405 | 0.691 | 0.0839 | 0.0429 | 0.0677
GTGTACC | -0.014 | 0.0262 | 0.143 | 0.786 | -0.121 | 1.77 | -0.0916 | 0.00801 | 0.0257
GAGTTAT | -0.104 | -0.401 | 0.358 | 0.531 | -0.225 | 1.52 | -2.91 | 0.108 | 0.278
TCGGACT | 0.092 | 0.174 | 0.719 | 1.15 | 0.0933 | 1.81 | 0.201 | 0.018 | 0.238
TGGCTCC | 0.153 | 0.126 | 0.305 | 0.63 | -0.0394 | 1.19 | 0.0219 | 0.11 | 0.0256
GTATTGT | -0.00858 | 0.0973 | 0.299 | 0.705 | 0.00134 | 1.07 | 0.0109 | 0.162 | 0.0472
TCACCAG | -0.0766 | -0.0518 | -0.531 | -0.922 | -0.0484 | -1.14 | -0.0564 | -0.0903 | -0.0488
GGAAATA | 0.0431 | 0.105 | 0.758 | 1.75 | 0.0327 | 2.05 | 0.221 | 0.0898 | 0.162
AGCCCAC | 0.117 | 0.0348 | 0.183 | 0.825 | -0.0991 | 0.983 | -0.00256 | 0.0763 | 0.204
GGGGGTC | 0.0117 | 0.027 | 0.708 | 1.65 | 0.0183 | 2.11 | 0.117 | 0.0217 | 0.112
CCCAATT | -0.0227 | 0.0189 | -0.199 | -2.14 | 0.058 | -0.838 | -0.327 | 0.0148 | -0.104
GGCCGCA | -0.0429 | -0.0618 | 0.387 | 0.909 | -0.0484 | 1.25 | 0.0613 | -0.0895 | 0.0365
CTTCGTA | -0.0162 | 0.0126 | -0.2 | -1.18 | 0.0168 | -0.993 | -0.111 | 0.0684 | 0.0688
TCAAGGC | 0.00503 | -0.0718 | 0.0836 | 0.399 | -0.0937 | -0.187 | 0.109 | -0.154 | -0.0736
CTTAGCC | 0.185 | 0.0134 | -0.0164 | -0.212 | 0.0216 | -0.935 | -0.00122 | 0.0795 | 0.0168
TTGAAAC | 0.0659 | 0.0451 | 0.168 | -0.41 | 0.0984 | -0.192 | 0.0393 | 0.0967 | 0.118
AAAGAGG | 0.00706 | -0.002 | 0.168 | 0.716 | 0.0706 | -0.0784 | 0.27 | -0.073 | -0.0137
ATTGCCC | -0.0455 | -0.0968 | -0.425 | -0.453 | -0.0365 | -0.749 | -0.181 | -0.177 | -0.0846
GTTGTCC | -0.0114 | 0.0294 | 0.242 | 0.698 | -0.00438 | 1.35 | 0.0485 | -0.0154 | 0.054
CGAAGCT | -0.0617 | -0.131 | 0.165 | 0.314 | -0.123 | 0.329 | -0.0022 | -0.0262 | 0.0238
